Not every detail of the peptide structures is certain; ends, links or a residue may be inferred. Non-standard residues stand in square brackets, D forms with d. Residues, ends and D or L forms follow the SMILES beside them. Nle = CCCC[C@H](N)C(=O)O
Legend:
rat kidney = test: Renal cortical blood flow (laser doppler) after infusion into the renal artery; assay type: in vivo; settings: infusion of 0.05 pmole
AT4 receptor = biological target: T1, AT4 receptor (Bos taurus, UniProt F1N1Q8); test: 125I-AIV binding and competition, bovine adrenal cortical membranes; settings: bovine adrenal cortical AT4 receptor
T1 sequence (F1N1Q8 1-1022): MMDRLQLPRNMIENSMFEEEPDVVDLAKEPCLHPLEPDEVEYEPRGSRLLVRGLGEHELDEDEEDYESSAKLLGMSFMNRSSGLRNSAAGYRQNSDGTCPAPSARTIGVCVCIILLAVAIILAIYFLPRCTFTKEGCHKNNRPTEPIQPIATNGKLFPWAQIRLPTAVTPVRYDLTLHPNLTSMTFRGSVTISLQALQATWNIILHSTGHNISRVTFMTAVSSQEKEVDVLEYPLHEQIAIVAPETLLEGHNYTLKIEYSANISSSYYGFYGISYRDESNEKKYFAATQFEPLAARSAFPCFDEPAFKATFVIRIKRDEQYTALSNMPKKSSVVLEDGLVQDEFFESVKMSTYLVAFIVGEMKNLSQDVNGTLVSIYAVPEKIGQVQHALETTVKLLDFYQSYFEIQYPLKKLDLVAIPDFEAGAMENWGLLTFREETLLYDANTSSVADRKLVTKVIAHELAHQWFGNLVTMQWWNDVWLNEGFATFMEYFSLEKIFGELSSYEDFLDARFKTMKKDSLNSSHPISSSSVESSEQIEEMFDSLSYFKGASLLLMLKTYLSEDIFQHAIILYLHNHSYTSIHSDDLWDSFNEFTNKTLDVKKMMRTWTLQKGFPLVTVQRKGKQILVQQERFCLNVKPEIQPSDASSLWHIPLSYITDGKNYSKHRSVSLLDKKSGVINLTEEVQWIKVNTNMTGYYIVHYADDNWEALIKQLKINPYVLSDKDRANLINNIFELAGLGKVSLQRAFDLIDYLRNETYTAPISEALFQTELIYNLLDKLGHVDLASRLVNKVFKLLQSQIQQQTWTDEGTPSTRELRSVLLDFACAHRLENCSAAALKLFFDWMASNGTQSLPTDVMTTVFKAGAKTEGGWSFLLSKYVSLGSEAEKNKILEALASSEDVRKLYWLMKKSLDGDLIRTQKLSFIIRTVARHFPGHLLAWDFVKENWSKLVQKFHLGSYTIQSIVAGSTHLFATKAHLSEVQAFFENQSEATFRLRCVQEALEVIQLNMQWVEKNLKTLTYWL

Compound | maximum increase in renal blood flow (rat kidney) [%] | AT4 receptor binding affinity, in words (AT4 receptor) | AT4 receptor binding affinity, in words (AT4 receptor; listed as Lys1 YIHPF)
CCCC[C@H](N)C(=O)N[C@@H](Cc1ccc(O)cc1)C(=O)N[C@H](C(=O)N[C@@H](Cc1c[nH]cn1)C(=O)N1CCC[C@H]1C(=O)N[C@@H](Cc1ccccc1)C(=O)O)[C@@H](C)CC [NleYIHPF] (H-[Nle]YIHPF-OH) | 19 | – | –
CC[C@H](C)[C@H](NC(=O)[C@H](Cc1ccc(O)cc1)NC(=O)[C@@H](N)CCCCN)C(=O)N[C@@H](Cc1c[nH]cn1)C(=O)N1CCC[C@H]1C(=O)N[C@@H](Cc1ccccc1)C(=O)O [KYIHPF] (H-KYIHPF-OH) | – | higher binding affinity than AIV | higher than NVal1 YIHPF
